# Among all 75,000 compounds or so, about 20 (0.03%) were called active. About 1% were inconclusive and are not listed. Calls come from the whole dose curve; as a rule, active = well fitted inhibition curve with a large enough effect; inconclusive = small, poorly fitted or top-dose-only effect; inactive = flat fitted curve, though single readings scatter. The entries are a selection whose mix differs from that of the whole data set.
# Target: Caspase-1 (Homo sapiens) (UniProt P29466)
# Test: qHTS Assay for Allosteric/Competitive Inhibitors of Caspase-1
# Details: Caspase-1 enzyme, Ac-WEHD-AFC fluorogenic rate; series mostly up to 57.5 µM; activity change, negative = inhibition: at the top concentration
# Description: NIH Molecular Libraries Screening Centers Network [MLSCN]
# NIH Chemical Genomics Center [NCGC]
# PI Name: Dr. James Wells,
# Dr. Enrique Perez-Paya, Dr.Janice Williams, Dr. Dennis Wolan, a person
# The caspases (Cysteine Aspartyl Protease) comprise a related family of 14 dimeric proteases that are critical mediators of apoptosis (programmed cell death) and inflammation. The caspases represent an important class of drug targets for stroke, ischemia, cancer and inflammatory diseases. […] One goal of this project was to identify compounds that act as allosteric inhibitors via stabilizing the procaspase form of the enzyme. Previous work in Well's laboratory has shown that such allosteric inhibitors can be identified and these act by binding at the dimer interface of enzyme (Hardy, Lam et al., 2004).
# The biochemical assay was configured using purified caspase 1 at a high enzyme concentration to promote formation of the homodimers and thus facilitate the identification of allosteric inhibitors. The overall goal was to identify reversible inhibitors with better drug-like properties than the currently available set of aspartyl-containing peptidomimetics that covalently bind the active site. Caspase 1 was assayed using the profluorescent substrate Ac-WEHD-AFC. After initiation of the assay with substrate the plates were rapidly read using an automated robotic system (Kalypsys, Inc.) to maintain consistent timing. A kinetic mode of detection was used where the initial rate was collected (estimated final product formation was ~10%). Compounds were screened as a concentration-titration series that ranged from 57 uM to 0.7 nM. Below is the protocol used for caspase 1.
# NCGC Assay Protocol Summary:
# Caspase 1 was prepared in buffer (50 mM HEPES pH 7.5, 50 mM KCl, 200 mM NaCl, 10 mM DTT, 0.1% CHAPS) at a concentration of 66.6 nM and 3 uL was dispensed to all wells using black solid Kalypsys 1536-well plates. 20 nL of DMSO containing compounds was added using a pin-tool (Kalypsys Inc.) to columns 5-48. Then 20 nL of DMSO solution from a control plate was added to columns 1-4. Controls were: Column 1, 16 point titration with each concentration in duplicate (1:1 dilutions in DMSO; final starting concentration was 57 uM) of the caspase 1 inhibitor Ac-WEHD-CHO (Alexis Biochemicals); Column 2, a 16 point titration with each concentration in duplicate of the free AFC fluorophore prepared in DMSO (Alexis Biochemicals), final starting was 40 uM; Column 3 neutral (DMSO only) control; Column 4: DMSO alone, to serve as a negative control (no substrate was added). Then 1 uL of 20 uM the substrate Ac-WEHD-AFC (Alexis Biochemicals) prepared in the same buffer was dispensed to all wells except columns 2 and 4 and the plates were immediately transferred (< 1 min) to the Viewlux. The plates were then exposed using 405 nm excitation/520 nm emission filters for 4 sec and read at 20 sec intervals for 3 min. Final enzyme concentration was 50 nM and the final substrate concentration was 5 uM.
# Concentration-response curves were fitted to the data calculated from slope of the linear regression of fluorescent intensity versus time (the rate). The concentration-effect curves were then classified based on curve quality (r2), response magnitude and degree of measured activity. […] Inconclusive compounds had appreciable concentration-dependent effects on both the measured rate and the interpolated basal fluorescence intensity at the start of the reaction but where the basal fluorescent intensity was marginal (e.g. < 10-fold). Inconclusive compounds also encompass highly fluorescent compounds (>100-fold increases in fluorescent intensities values relative to controls) where artificial concentration-dependent decreases in the rate occurred at high compound concentrations due to fluorescent interferences.
# Keywords: Caspase 1, proteases, profluorescent, MLSMR, MLSCN, NIH Roadmap, qHTS, NCGC
# Potency is the fitted concentration of half-maximal effect.
Compound,Potency,"activity change, negative = inhibition"
COc1ccc2c(c1)Cc1sc(NC(=O)c3cccs3)nc1-2,active: 31.6 µM,
COCCNC(=O)[C@H](C)[C@@H]1C[C@@]1(C)[C@@H](NC(=O)OCc1ccccc1)c1ccccc1,,inactive: 0.901%
COc1cc(N[C@@H](C)CCCN)c2ncccc2c1,active: 2.51 µM,
Cc1ccc(C(=O)Nc2ccc(S(=O)(=O)O)c3cc(S(=O)(=O)O)cc(S(=O)(=O)O)c23)cc1NC(=O)c1cccc(NC(=O)Nc2cccc(C(=O)Nc3cc(C(=O)Nc4ccc(S(=O)(=O)O)c5cc(S(=O)(=O)O)cc(S(=O)(=O)O)c45)ccc3C)c2)c1,inactive,
CCCc1ncc(C[n+]2ccccc2C)c(N)n1,,inactive: -2.63% [at 25.7 µM]
CN(Cc1cnc2nc(N)nc(N)c2n1)c1ccc(C(=O)N[C@H](CCC(=O)O)C(=O)O)cc1,,inactive: -8.75% [at 25.7 µM]
CC(=O)[C@@H]1[C@@H]2C(=O)N(c3ccc(F)c(Cl)c3)C(=O)[C@@H]2C2c3ccccc3C=CN21 (stereo not given in full),active: 31.6 µM,
COC(=O)[C@@H]1[C@@H]2C[C@H]3c4[nH]c5cc(OC)ccc5c4CCN3C[C@@H]2C[C@H](OC(=O)c2cc(OC)c(OC)c(OC)c2)[C@H]1OC,,inactive: -16.6% [at 25.7 µM]
CO[C@H]1COC(=O)C/C=C\[C@@H](C)[C@H](OC)COC(=O)CCC[C@@H]1C,,inactive: 0.279% [at 11.5 µM]
O=C1C(SCCO)=C(SCCO)C(=O)c2ccccc21,active: 15.8 µM,
CO[C@H]1COC(=O)CCC[C@H](C)[C@@H](OC)COC(=O)C/C=C\[C@@H]1C,,inactive: -3.97% [at 11.5 µM]
O=C1Cc2ccccc2C(=O)N1CCc1ccccc1,active: 5.01 µM,
CCn1cc(C(=O)O)c(=O)c2cnc(N3CCCC3)nc21,,inactive: -2.09% [at 25.7 µM]
C[C@@H]1[C@H](O)[C@@H](C)/C=C/C=C/C=C/C=C/C=C/C=C/C=C/[C@H](O[C@@H]2O[C@H](C)[C@@H](O)[C@H](N)[C@@H]2O)C[C@@H]2O[C@](O)(C[C@@H](O)C[C@@H](O)[C@H](O)CC[C@@H](O)C[C@@H](O)CC(=O)O[C@H]1C)C[C@H](O)[C@H]2C(=O)O,,inactive: -11.3%
COC(=O)C1C2CC3c4[nH]c5cc(OC)ccc5c4CCN3CC2CC(OC(=O)c2cc(OC)c(OC)c(OC)c2)C1OC (stereo not given),,inactive: -17.4%
O=C(O)[C@@H]1[C@@H]2C[C@H]3c4[nH]c5ccccc5c4CCN3C[C@@H]2CC[C@@H]1O,,inactive: -15% [at 25.7 µM]
Cc1nc(N=Nc2ccc(S(=O)(=O)O)cc2S(=O)(=O)O)c(COP(=O)(O)O)c(C=O)c1O,,inactive: 2.43%
C[C@H]1[C@@H](O)[C@@H](C)\C=C/C=C\C=C/C=C\C=C/C=C\C=C/[C@@H](O[C@H]2O[C@@H](C)[C@@H](O)[C@@H](N)[C@@H]2O)C[C@@H]2O[C@](O)(C[C@@H](O)C[C@@H](O)[C@@H](O)CC[C@@H](O)C[C@@H](O)CC(=O)O[C@H]1C)C[C@@H](O)[C@H]2C(=O)O (stereo in doubt),,inactive: -2.8% [at 25.7 µM]
CN(Cc1cnc2nc(N)nc(N)c2n1)c1ccc(C(=O)NC(CCC(=O)O)C(=O)O)cc1 (stereo not given),,inactive: -9.22%
C[C@H]1[C@H](O)[C@@H](C)C=CC=CC=CC=CC=CC=CC=C[C@H](O[C@@H]2O[C@@H](C)[C@H](O)[C@@H](N)[C@@H]2O)C[C@@H]2O[C@](O)(C[C@@H](O)C[C@@H](O)[C@@H](O)CC[C@@H](O)C[C@@H](O)CC(=O)O[C@H]1C)C[C@H](O)[C@H]2C(=O)O,,inactive: 2.64% [at 11.5 µM]
